Assay results from article doi:10.1101/2025.05.13.653810, “Spatial control of secretory vesicle targeting by the Ync13–Rga7–Rng10 complex during cytokinesis” (bioRxiv, 2025).
Results are given in words; binding and its absence hold for the method and conditions named. Some entries that bind do so weakly or less than the wild type. For some of these results: Where a sequence is shown, tags or fusion partners need not be part of it.

The chains behind the UniProt entries cited, without tags or fusion partners.
UniProt O74475: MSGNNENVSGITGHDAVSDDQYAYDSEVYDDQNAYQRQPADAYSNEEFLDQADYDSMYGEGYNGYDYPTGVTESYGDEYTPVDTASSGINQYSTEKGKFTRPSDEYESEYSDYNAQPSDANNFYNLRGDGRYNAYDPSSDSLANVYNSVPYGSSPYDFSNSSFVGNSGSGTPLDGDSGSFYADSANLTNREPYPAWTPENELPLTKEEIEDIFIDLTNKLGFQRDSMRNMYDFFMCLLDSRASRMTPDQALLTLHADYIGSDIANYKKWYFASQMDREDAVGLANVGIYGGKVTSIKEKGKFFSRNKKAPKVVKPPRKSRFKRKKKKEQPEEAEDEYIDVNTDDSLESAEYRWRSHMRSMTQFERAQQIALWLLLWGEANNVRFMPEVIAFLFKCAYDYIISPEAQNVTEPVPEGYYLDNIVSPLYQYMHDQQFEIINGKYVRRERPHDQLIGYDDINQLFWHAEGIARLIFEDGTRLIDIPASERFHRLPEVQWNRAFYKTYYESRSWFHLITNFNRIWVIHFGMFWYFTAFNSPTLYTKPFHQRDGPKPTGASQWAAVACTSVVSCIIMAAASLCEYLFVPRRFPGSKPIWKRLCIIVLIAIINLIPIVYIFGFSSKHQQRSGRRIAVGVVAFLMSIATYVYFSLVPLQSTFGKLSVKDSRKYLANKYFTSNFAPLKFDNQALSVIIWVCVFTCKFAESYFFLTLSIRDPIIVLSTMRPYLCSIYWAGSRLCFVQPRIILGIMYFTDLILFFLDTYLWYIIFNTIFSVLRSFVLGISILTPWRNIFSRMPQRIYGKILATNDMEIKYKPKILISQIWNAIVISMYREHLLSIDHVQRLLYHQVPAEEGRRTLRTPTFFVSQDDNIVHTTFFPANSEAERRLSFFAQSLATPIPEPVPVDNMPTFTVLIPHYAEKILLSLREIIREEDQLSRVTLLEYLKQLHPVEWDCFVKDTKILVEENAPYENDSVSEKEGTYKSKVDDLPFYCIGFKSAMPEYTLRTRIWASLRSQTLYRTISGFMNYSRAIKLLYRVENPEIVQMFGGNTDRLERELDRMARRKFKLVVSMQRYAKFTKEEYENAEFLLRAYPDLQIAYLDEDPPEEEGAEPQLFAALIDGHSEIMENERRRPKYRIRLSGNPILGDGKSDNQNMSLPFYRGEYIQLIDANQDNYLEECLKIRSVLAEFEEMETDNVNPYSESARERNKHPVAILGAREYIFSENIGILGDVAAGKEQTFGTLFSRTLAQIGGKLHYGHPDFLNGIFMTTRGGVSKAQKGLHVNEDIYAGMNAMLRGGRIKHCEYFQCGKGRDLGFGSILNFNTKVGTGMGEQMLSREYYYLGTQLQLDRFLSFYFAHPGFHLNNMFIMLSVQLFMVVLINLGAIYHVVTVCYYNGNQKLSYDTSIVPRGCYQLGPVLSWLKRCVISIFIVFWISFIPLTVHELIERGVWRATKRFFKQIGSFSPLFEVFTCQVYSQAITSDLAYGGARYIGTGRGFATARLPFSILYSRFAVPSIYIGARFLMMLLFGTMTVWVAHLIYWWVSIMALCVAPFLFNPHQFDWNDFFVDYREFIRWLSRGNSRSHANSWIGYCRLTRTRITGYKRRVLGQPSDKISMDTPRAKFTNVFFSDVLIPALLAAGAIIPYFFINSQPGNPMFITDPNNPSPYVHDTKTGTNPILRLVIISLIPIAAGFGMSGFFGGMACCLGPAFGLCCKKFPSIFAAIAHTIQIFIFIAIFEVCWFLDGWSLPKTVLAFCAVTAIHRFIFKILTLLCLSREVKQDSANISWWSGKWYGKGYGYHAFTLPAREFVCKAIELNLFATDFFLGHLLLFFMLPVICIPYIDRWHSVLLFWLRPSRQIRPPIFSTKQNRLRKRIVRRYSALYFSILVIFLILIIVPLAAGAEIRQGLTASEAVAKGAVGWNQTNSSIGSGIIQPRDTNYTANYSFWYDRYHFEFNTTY
UniProt Q10287: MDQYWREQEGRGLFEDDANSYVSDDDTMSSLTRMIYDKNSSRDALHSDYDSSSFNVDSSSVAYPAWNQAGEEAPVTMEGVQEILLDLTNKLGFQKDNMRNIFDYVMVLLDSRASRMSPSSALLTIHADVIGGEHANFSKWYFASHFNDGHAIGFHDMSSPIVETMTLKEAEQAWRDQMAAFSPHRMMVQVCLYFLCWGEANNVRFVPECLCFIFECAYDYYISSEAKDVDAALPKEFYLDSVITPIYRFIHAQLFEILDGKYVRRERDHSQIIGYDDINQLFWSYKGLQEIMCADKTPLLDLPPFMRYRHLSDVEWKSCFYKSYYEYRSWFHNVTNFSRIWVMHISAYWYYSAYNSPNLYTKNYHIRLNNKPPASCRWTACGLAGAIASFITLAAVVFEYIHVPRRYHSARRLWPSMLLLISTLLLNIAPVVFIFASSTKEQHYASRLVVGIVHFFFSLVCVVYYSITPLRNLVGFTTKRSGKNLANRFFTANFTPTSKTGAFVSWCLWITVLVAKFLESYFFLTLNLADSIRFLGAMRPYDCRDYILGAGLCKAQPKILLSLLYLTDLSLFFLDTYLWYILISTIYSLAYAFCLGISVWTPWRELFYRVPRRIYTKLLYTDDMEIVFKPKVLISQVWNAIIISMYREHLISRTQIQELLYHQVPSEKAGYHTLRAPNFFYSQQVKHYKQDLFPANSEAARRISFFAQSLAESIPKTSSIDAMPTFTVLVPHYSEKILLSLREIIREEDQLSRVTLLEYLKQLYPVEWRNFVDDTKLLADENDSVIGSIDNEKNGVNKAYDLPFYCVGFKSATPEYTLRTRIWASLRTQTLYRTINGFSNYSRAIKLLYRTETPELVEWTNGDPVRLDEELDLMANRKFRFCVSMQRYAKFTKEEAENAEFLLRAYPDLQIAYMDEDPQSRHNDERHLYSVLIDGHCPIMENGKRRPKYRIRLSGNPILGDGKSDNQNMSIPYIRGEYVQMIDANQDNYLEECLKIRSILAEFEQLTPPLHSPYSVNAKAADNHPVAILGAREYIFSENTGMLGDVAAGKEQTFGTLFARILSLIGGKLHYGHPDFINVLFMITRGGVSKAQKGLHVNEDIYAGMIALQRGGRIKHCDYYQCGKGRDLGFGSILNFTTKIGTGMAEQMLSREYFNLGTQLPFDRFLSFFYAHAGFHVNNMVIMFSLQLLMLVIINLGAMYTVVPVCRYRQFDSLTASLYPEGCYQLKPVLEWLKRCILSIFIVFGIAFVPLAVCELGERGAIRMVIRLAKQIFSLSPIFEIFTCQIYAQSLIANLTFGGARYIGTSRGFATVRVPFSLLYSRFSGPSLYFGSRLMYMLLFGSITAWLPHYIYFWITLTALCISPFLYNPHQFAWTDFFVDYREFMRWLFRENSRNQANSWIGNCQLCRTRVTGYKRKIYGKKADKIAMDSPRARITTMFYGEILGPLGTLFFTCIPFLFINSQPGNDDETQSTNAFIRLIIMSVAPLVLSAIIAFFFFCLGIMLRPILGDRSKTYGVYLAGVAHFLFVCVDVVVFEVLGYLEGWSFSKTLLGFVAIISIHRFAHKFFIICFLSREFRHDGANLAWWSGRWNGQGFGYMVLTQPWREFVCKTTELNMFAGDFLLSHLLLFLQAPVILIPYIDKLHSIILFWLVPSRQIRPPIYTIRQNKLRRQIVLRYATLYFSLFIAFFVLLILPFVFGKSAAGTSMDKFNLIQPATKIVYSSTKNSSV
UniProt Q9USK8: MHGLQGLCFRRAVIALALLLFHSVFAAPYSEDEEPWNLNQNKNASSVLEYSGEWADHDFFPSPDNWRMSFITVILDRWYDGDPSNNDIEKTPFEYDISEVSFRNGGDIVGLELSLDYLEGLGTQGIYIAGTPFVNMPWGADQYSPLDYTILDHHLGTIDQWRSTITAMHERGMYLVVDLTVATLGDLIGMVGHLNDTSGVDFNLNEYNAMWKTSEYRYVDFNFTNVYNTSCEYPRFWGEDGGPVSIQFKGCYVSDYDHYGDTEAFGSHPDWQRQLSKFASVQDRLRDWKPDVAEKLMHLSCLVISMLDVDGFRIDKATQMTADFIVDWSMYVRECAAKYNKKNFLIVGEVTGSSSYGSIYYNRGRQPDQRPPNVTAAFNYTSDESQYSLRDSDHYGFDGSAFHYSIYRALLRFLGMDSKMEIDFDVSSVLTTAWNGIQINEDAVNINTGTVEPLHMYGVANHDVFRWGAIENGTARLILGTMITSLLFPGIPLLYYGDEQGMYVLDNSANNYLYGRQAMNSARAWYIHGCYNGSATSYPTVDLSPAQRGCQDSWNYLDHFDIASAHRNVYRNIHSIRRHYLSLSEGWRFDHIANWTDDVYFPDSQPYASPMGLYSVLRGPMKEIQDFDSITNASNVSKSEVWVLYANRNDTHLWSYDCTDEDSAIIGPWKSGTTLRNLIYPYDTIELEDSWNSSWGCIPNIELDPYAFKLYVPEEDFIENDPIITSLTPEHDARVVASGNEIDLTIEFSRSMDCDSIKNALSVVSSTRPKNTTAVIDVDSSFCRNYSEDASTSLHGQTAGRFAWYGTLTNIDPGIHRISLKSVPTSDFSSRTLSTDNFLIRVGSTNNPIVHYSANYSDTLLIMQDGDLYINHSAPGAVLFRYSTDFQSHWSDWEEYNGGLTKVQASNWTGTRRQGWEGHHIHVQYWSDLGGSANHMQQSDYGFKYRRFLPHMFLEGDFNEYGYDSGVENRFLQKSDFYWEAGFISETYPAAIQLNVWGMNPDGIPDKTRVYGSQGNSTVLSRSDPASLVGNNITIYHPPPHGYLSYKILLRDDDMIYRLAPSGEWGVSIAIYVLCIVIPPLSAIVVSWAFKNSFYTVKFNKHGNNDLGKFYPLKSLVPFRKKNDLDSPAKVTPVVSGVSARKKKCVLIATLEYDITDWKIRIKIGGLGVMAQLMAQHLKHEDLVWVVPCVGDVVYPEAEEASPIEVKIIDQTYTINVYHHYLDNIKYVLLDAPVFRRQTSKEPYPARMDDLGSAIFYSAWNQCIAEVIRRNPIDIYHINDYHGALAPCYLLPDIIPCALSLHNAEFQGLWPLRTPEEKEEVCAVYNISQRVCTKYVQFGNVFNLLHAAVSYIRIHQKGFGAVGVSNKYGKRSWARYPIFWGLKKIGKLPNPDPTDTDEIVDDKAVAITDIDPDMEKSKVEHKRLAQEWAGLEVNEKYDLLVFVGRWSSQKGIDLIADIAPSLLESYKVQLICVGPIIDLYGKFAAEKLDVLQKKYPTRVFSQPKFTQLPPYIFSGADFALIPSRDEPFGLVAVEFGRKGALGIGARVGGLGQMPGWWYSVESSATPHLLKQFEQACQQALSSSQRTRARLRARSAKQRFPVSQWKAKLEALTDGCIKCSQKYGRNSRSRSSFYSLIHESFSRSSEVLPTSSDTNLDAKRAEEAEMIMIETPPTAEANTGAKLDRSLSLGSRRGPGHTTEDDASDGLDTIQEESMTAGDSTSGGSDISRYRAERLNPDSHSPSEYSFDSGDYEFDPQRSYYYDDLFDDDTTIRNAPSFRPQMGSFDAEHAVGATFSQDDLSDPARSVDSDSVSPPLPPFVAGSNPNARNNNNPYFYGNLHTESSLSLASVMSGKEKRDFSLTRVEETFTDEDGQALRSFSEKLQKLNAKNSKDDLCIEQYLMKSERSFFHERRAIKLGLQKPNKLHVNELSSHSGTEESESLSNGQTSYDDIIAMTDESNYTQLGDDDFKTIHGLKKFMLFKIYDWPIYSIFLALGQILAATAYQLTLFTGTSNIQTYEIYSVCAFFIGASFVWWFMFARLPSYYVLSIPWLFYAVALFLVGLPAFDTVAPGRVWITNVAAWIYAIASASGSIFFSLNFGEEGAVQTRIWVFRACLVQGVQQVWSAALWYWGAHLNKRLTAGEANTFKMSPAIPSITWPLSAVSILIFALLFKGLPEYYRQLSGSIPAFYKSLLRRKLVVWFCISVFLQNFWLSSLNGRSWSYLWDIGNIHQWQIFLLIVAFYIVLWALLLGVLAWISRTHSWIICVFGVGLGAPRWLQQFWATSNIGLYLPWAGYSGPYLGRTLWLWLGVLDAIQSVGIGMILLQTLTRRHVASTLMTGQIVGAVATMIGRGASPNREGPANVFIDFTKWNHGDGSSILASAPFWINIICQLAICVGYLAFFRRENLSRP

T1: Rga7-mEGFP (S. pombe) (UniProt O94466)
T1 sequence: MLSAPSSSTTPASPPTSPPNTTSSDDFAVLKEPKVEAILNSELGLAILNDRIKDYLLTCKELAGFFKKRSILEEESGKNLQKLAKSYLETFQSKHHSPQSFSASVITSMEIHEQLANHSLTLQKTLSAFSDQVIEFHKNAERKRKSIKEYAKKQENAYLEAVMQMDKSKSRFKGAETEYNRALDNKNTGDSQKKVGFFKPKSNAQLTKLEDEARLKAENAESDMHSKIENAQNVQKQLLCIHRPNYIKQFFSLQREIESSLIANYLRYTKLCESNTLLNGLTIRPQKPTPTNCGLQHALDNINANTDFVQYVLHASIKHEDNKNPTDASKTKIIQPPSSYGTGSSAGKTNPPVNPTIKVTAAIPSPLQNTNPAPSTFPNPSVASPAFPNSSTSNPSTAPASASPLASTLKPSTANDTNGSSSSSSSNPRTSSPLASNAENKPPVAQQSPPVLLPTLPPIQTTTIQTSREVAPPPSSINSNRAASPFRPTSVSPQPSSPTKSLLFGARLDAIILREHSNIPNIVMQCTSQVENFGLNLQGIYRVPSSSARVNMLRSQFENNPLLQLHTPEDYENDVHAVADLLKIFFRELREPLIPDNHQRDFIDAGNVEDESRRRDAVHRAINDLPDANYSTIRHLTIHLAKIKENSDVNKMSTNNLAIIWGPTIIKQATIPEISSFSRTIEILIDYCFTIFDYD

T2: 3nmt1-mECitrine-Ync13 (S. pombe) (UniProt O13683)
T2 sequence: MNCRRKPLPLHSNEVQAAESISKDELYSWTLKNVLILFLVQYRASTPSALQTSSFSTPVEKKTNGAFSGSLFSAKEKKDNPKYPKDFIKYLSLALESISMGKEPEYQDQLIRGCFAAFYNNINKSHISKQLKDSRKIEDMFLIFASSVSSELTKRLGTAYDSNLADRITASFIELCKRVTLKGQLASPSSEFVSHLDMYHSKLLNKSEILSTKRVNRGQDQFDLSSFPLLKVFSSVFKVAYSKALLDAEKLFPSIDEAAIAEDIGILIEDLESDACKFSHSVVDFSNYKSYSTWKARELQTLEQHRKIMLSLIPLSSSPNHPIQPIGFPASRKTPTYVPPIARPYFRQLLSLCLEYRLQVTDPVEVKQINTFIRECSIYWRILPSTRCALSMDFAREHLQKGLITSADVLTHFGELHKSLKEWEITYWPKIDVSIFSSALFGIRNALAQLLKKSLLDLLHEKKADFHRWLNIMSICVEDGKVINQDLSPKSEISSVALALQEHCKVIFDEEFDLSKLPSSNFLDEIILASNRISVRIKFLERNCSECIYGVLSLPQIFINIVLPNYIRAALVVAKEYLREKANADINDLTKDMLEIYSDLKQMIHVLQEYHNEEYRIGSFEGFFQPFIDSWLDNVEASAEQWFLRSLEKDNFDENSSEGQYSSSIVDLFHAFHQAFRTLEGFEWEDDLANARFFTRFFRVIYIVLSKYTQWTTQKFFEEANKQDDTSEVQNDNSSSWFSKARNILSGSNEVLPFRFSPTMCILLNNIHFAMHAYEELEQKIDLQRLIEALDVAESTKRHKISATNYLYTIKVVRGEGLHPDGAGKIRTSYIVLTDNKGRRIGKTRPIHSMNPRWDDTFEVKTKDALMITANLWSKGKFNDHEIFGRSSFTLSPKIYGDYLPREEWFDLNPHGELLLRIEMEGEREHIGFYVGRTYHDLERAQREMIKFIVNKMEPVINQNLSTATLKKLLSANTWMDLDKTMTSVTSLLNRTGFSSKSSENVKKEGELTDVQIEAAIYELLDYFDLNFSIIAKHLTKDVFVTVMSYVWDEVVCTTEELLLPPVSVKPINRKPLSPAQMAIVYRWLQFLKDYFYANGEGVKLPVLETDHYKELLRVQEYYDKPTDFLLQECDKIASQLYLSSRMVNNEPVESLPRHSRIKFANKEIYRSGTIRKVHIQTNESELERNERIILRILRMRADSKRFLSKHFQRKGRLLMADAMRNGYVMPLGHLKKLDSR

T3: Rng10-mEGFP (S. pombe) (UniProt Q9P6L9)
T3 sequence: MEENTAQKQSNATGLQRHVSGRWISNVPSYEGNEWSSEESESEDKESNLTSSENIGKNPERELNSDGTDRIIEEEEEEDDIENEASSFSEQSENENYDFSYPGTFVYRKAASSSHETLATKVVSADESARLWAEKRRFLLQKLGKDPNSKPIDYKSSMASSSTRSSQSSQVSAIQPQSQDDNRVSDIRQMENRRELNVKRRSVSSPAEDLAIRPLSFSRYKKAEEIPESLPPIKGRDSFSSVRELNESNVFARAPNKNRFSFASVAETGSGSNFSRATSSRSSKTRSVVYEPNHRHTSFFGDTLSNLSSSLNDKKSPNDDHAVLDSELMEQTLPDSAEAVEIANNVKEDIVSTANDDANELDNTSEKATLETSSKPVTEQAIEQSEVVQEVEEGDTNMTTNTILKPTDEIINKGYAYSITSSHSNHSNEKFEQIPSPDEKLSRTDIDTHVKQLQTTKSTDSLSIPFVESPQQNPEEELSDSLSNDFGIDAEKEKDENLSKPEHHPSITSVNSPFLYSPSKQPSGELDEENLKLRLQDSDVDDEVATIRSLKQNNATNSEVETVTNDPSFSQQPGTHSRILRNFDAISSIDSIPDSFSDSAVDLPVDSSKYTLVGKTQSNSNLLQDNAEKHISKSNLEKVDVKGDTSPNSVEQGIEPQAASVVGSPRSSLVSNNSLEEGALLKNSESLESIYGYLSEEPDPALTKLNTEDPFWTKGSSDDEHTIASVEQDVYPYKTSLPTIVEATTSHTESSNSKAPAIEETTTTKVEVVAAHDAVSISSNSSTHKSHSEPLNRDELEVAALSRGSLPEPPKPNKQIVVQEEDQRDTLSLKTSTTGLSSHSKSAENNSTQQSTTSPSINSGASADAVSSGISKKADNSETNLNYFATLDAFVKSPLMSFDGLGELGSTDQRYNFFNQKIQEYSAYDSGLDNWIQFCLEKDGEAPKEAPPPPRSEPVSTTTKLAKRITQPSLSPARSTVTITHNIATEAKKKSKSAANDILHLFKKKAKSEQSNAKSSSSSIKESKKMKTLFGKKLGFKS

B1: Trs120-tdTomato (protein, UniProt O14251 1-1210)
chain: MEFDFFSFVAPSRVQSLVLPFGRVRRKSFSSYLQLLRRVSHIQLSDVPVATATRKSSSFNPLAFPLGRLVYNFLTSLDDQQALLEEFEYFRRVFVLIGIVDGSEEQEVEQLCSTLDVWRRRIPHALVAKCIVFNCPEDKENIFNAPNIIIGPRSDFSINSVMRSILCDITAELLEGFSSLEFSIHARSVILSPITDMPHLAPLQRKNSNASIHSLGSSSRPTLTRTPSITSRSVNSVTERSKSLSKGRIENQFGQLYLLAGRVPNALKHFSTAIALSKATGDFLWQGLSLELFTVCLVIMAHLHVDVQIPPNILSMFPSYNDRLNAFGPLKFDALLNFITEMRNVVDQLYQKSTLQPNDAVPGLCFSESILRYAHLLTVVYSCKGFNDNALDHIIAQAPIRPVKKATTYVPNKATICQWIMRAQGQHLNSLSIRERCRIYGAMANMLGSIGFSRLRVKMLRELVASLTPVLLETRRQNASKNGIHPEVIASHTAQSFKSTHYCNILPLISEICQEYGLLKTDGSLLNPELTKWGWSNLQFDVLNELISLCDSLSDYRSILLLISLFFLTSVQTASSSQQISMFKAFRKTYLFASNAGIHINAPYWDPFMITDLKFIGSSENAELIHQRLRNGLPKSIEKGPFIYNPFNRRQDQNQSKSVLVVDEQVAFSIYFRNPLSVSVEVQDVHLETKGVSAKCSHSTFTMRPLSIERTTLTVTPTETGELHIVGCRVKVFGCEPILQYVYEAKDKHKSLHVYLEKSKDVNAELRSLDTIDHLWTYFPFKKDLKTKSFDCIVIASQPKLSLAFQNLTSGKFNFAEYETGELVYVIENTSFVEASHISVLFEDSSSKAFEQAIADKSITADRLYELQFEEFNLPTFTVESSQPFSLSPGERREIHIKIRAKPNSQEGLILFESSVHKPEDTEFYVRRLRIPVSLNISKRVDLKQWSAFMDTEGDPSYCLVLLNFYNHFSEPLFVTVKTASTDESRSVLIKPKADNVILFRLKRFIMSSEEINLDIPNLSTKQFVLSSGFKKSIEDSYTMKKRFWIKEYFLKEVQASWKTDDNLHHGEIYLRNHILSDEMANNLSILPIRIQAWVSYDSEKVTTVCPREPFKLVLEFFGHADTNMRYKISWTQLNTQANTSSFNGLILDGPEEDIVCFNNSKCHVVIERNMFAYTTGMYNIFVRIFNEELQLLSQPVDLDEPILLIVDAK

Tests used:
Experiment in all cases: ectopic mistargeting to mitochondria (Tom20-GBP); mEGFP-, GFP- or mECitrine-tagged protein 1 mistargeted to mitochondria by Tom20 tagged with GFP-binding protein (GBP) nanobody in live S. pombe cells; recruitment of tdTomato-, mCherry- or RFP-tagged protein 2 to mitochondria seen by confocal microscopy
Rga7-mEGFP (S. pombe) = biological target: T1, Rga7-mEGFP (S. pombe)
[1] = biological target: T2, 3nmt1-mECitrine-Ync13 (S. pombe)
Rng10-mEGFP (S. pombe) = biological target: T3, Rng10-mEGFP (S. pombe)

| Molecule | binding (Rga7-mEGFP (S. pombe)) | binding [1] | binding (Rng10-mEGFP (S. pombe)) |
| --- | --- | --- | --- |
| RFP-Bgs4 (from UniProt O74475 1-1955) (enzyme) | binds | binds | binds |
| tdTomato-Bgs1 (from UniProt Q10287 1-1729) (enzyme) | no binding | – | no binding |
| Ags1-mCherry (from UniProt Q9USK8 1-2410) (enzyme) | binds | binds | binds |
| B1 | binds | – | binds |
